Data as given in PubChem BioAssay AID1918954 (Molecular Pharmacology Branch, DTP, NCI, 2023).
Not every entry of the source has a single result; some have several. Only these are listed. An entry can have further records. Results that share an entry are repeated measurements in other runs, samples, wells, individuals or studies. Signs of the kind (2×) say how often a value occurs here. A date in brackets names the month of the test.

Tested on: MDA-MB-468 complex spheroids with HUVEC/MSC, viability
Assay: Anticancer human tumor MDA-MB-468 cell line growth inhibition;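 also: spheroids exposed to agents for seven days; 100% = DMSO vehicle control viability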
Settings: stronger effect = lower value
Text: Multicellular complex tumor spheroid response to LSD1 Inhibitor Iadademstat in combination with a variety of drugs and investigational agents in selected tumor cell lines
The current study was undertaken to assess response to LSD1 inhibitors in combination with standard-of-care drugs and investigational agents in solid tumor complex spheroid models as well as in the K-562 leukemia. Complex spheroids include a stromal component modeled by human endothelial cells (HUVEC) and fibroblasts modeled by human mesenchymal stem cells (MSCs). The concentration ranges selected for each drug and investigational agent were based upon clinically achievable concentrations if the clinical Cmax of the agent was known.
Compounds. The drugs and investigational agents used in this study are listed on Table 1. All of the agents used, including staurosporine (NSC755774) and gemcitabine (NSC613327), were obtained from the Developmental Therapeutics Program, NCI. FDA-approved anticancer drugs are available from the NCI at http://dtp.nci.nih.gov/branches/dscb/oncology_drugset_explanation.html. Drugs and investigational agents were >95% pure by proton nuclear magnetic resonance (NMR) and liquid chromatography/mass spectrometry (LC/MS). Stock solutions were prepared at 400x in DMSO, stored at -70 degrees C, and diluted in fresh medium prior to their use. The final concentration of DMSO in cell culture wells never exceeded 0.25% (v/v). The FDA-approved anticancer drug set is available from the Developmental Therapeutics Program at https://dtp.cancer.gov/organization/dscb/obtaining/available_plates.htm. All drugs and investigational agents were tested over a range starting from a high concentration at or near the clinical Cmax and decreasing in half-log increments. If the clinical Cmax for an agent had not been determined, the highest concentration tested was 10 microM.
Cell Lines. The patient-derived cancer cell (PDC) lines: 292921-168-R-J2-PDC, K24384-001-R-PDC, and 521955-158-R2-J5-PDC pancreatic carcinomas, 556581-035-R-J1 ovarian carcinoma, 324938-238-R-J1-PDC, 855422-203-R-J1-PDC and 883617-216-R-J1-PDC urothelial bladder carcinomas, 743489-274-T-PDC renal cell carcinoma, 138582-R-J1 Merkel cell tumor, K60290-347-R-J1 and K57222-313-R-J1-PDC glioblastomas, 653999-131-R-J2-PDC, LG0703-F948-PDC, and 349418-098-R-PDC non-small cell lung carcinomas, 885512-296-R-J2-PDC, 171881-019-R-J1-PDC breast carcinomas and 186277-243-T-J2-PDC and 233499-124-R-J2-PDC colon carcinomas were obtained from the NCI Patient-Derived Models Repository (PDMR, https://pdmr.cancer.gov). The established cell lines NCI/ADR-RES (RRID:CVCL_14520 and OVCAR-5 (RRID:CVCL_1628) ovarian carcinomas, 786-O (RRID:CVCL_1051) and A498 (RRID:CVCL_A498) renal cell carcinoma, NCI-H211 (ATCC, cat. CRL-5824; RRID:CVCL_1529), NCI-H196 (ATCC, cat. CRL-5823, RRID:CVCL_1509), SW 1271 (ATCC, cat. CRL-2177, RRID:CVCL_1716) and NCI-H1876 (ATCC, cat. CRL-5902, RRID:CVCL_1503) small cell lung carcinomas, MDA-MB-231 (RRID:CVCL_0062) and MDA-MB-468 (RRID:CVCL_0419)breast carcinomas (10-12). Pooled donor human umbilical vein endothelial cells (HUVEC, Lonza, cat. CC-2519) and human mesenchymal stem cells (hMSC, Lonza, cat. PT-2501) were purchased from Lonza (Walkersville, MD).
Cell Culture. All cells were maintained in an incubator at 37 degrees C and 5% CO2 with 95% humidity. The PDC lines were cultured according to standard operating procedures established by the NCI PDMR (https://pdmr.cancer.gov). Briefly all PDCs were thawed and cultured in Matrigel-coated flasks prepared with a working solution of 1X Ham's F-12 nutrient mix, without supplementation (Invitrogen, Waltham, MA, cat. 11765054), 100 U/mL penicillin-streptomycin (Invitrogen, cat. 15140122), and 2.5% Matrigel (Corning Inc., Corning, NY, cat. 354248) for the first three passages. […]

Row | Compound | viability, T/C (compound alone 1 µM) | viability, T/C (compound alone 3.16 µM) | viability, T/C (compound alone 10 µM) | further results
1 | Nc1ccn(C2OC(CO)C(O)C2(F)F)c(=O)n1 (stereo not drawn) |  |  |  | viability, T/C (compound alone 0.000949 µM): 7.49% [2022-01] and 40.7% [2022-02]
2 | NC1CCC(NC2CC2c2ccccc2)CC1 (stereo not drawn) | 89.1, 81.8, 82.7, 82.5, 94.6, 95, 113, 102, 83.4, 92.3, 87, 79.4, 85.4, 82.8, 82, 85.8, 88.8, 94 (2×), 86, 76.4, 69.8, 67.7, 80.5, 91% | 73.2, 85.7, 79.1, 102 (2×), 87.1, 74, 95.5, 92.6 (2×), 96, 83.7, 95.4, 89.1, 82.1, 89.3, 71, 86.5, 75.4, 81.6, 78.2, 87.2, 85.8, 80.7% | 54.5, 66.6, 70.3, 82.9, 71.7, 74.8, 61.5 (2×), 68.7, 62.8, 85.2, 95, 84.8, 67.7, 76.4, 73, 65.9, 62, 57.5, 57.7, 70.2, 46.4, 60.7% | viability, T/C (compound alone 0.1 µM): 86.4, 101 (2×), 88.1, 85.1, 100, 104 (2×), 113, 92.7, 94.7, 97, 110, 103 (2×), 94.3, 112, 98.8, 114, 92.5, 99.7, 82, 96.2, 107, 93.2%
3 | CC1(C)CCC(CN2CCN(c3ccc(C(=O)NS(=O)(=O)c4ccc(NCC5CCOCC5)c([N+](=O)[O-])c4)c(Oc4cnc5[nH]ccc5c4)c3)CC2)=C(c2ccc(Cl)cc2)C1 |  |  | 38.5% [2022-01] and 2.56% [2022-02] | 
4 | NC1CC1c1ccc(-c2cccc(O)c2)cc1 (stereo not drawn) | 114 (2×), 92.2, 109, 104, 105, 90.4, 91.1, 113 (2×), 83.5, 92.7, 117, 107, 115, 96, 93.5, 92.9, 96.7, 87.5, 80.7, 97.8, 96.2, 102, 97.5% | 95.6, 95.9, 96.3, 106 (2×), 109, 93.8, 102 (2×), 80.9, 95.2, 112, 110, 94, 97.9, 90.6 (2×), 92.4, 94.4, 80.5, 91.7, 99.7, 95.8, 94.5, 85.8% | 79.5, 71.1, 74.2, 72.1, 68.2, 76.4, 80.5, 72.8, 70.9, 63.9, 73.2, 69.2, 74.7, 83.1, 58, 75, 65.1, 75.3, 70.1, 76, 81.9, 65.4, 77.2, 82.8, 66.2% | viability, T/C (compound alone 0.316 µM): 94.6, 90.9, 116, 89.3, 104, 93.5, 86, 121, 90.5, 93.1, 96.5, 101, 94, 102, 97.9, 89.7, 80.4, 90.2, 87.8, 99.9, 105, 93, 92.7, 97.3, 88.1%
5 | O=C(C=Cc1cccc(S(=O)(=O)Nc2ccccc2)c1)NO |  |  |  | viability, T/C (compound alone 3 µM): 15.4% [2022-01] and 97.2% [2022-02]
6 | CC(C)CC(NC(=O)C(Cc1ccccc1)NC(=O)c1cnccn1)B(O)O (stereo not drawn) |  |  |  | viability, T/C (compound alone 0.000316 µM): 91.1% [2022-01] and 7.05% [2022-02]; viability, T/C (compound alone 0.001 µM): 29.7% [2022-01] and 0.17% [2022-02]
